Assay results as given in article PMC12136788.
The list shows a part of the results.

B1: ENSG00000124766:be:win_2751|3pUTR|ENSG00000124766|bound_else_gene|NA|bound_elsewhere_windowed (ssRNA)
RNA: GGGAGUUCUACAGUCCGACGAUCUUCUCAGUGUGUGUGUUUAUUCCUUAUAGGUGUAAAUGAGAAGACGUGUUUUUUUCCUUCACCGAUGCUCCAUCCUCGUAUUUCUUUUUCCUUGUAAAUGUAAUCAGAUGCCAUUUUAUACAACAGAGGAUUGAGCAUCA
B2: chr16:58551611:58551719:-|CDS|ENSG00000125107|unk|FALSE|unique (ssRNA)
RNA: GGGAGUUCUACAGUCCGACGAUCCUGGCUCAGGCCCAGGCUCAGGCCCAGGUUCCAGCAAAAGCUCCUCUUGCUGGUCAAGUUAGCACUAUGGUAACCACCUCAACAACUACCACUGUUGCUAAAACGGUUACGGUCACCAGGCAACAGAGGAUUGAGCAUCA
B3: chr15:52755052:52757554:-|three_prime_utr|ENSG00000169856|control|control|control (ssRNA)
RNA: GGGAGUUCUACAGUCCGACGAUCAAACCUCGGUGGAAAAGCUUUAAAUUAAAAAAAAUUUUUAAAAGACCAGGACCUCAAGAUAGCAGGUUUAUACUUAGAAAUAUUUGAAGAAAAAAAAGCGUUAUUUAUAGUCCAAAGAAACAACAGAGGAUUGAGCAUCA
B4: ENSG00000107863:be:win_1501|CDS|ENSG00000107863|bound_else_gene|NA|bound_elsewhere_windowed (ssRNA)
RNA: GGGAGUUCUACAGUCCGACGAUCGGACAGGAUGAAACCUUAGAAAAUGUCAAUUCUGGAACUCCAAUACCUGAUUCCAAUGGAGAGAAAAAACAGACUUACAAGUGGAGUGGGUUUACUGAACAGGAUGAUAGACGAGGUAUUCAACAGAGGAUUGAGCAUCA
B5: chr11:69651811:69651939:+|3pUTR|ENSG00000110092|msi1_unk|FALSE|overlapping (ssRNA)
RNA: GGGAGUUCUACAGUCCGACGAUCUAAAGCACAGCUGUAGUGGGGUUCUAGGCAUCUCUGUACUUUGCUUGCUCAUAUGCAUGUAGUCACUUUAUAAGUCAUUGUAUGUUAUUAUAUUCCGUAGGUAGAUGUGUAACCUCUUCACAACAGAGGAUUGAGCAUCA
B6: chr1:26281289:26281390:+|3pUTR|ENSG00000142669|msi1_unk|FALSE|overlapping (ssRNA)
RNA: GGGAGUUCUACAGUCCGACGAUCUCCCUCCUCUCUAAAUGUAGUCCCCUCUCCUCCAUCUAAAGGCAACAUUCCUUACCCAUUAGUCUCAGAAAUUGUCUUAAGCAACAGCCCCAAAUGCUGGCUGCCCCCAGCCAAGCAUUGCAACAGAGGAUUGAGCAUCA
B7: ENSG00000184898:stop:overlap|stop_codon|ENSG00000184898|stop_codon|NA|stop_codon (ssRNA)
RNA: GGGAGUUCUACAGUCCGACGAUCGGCUGUUAGGGCUUAACUGUUGUCCUCCCACGCCUCGGGGGGAACAAAAGUGGCCUGAUUAGCCAGAAAUGGAGGUCACAGCUGCCUUUUGAAAAGGGCUAAUAAGAACGAUUCGAGCCACAACAGAGGAUUGAGCAUCA
B8: chr4:189940876:189940977:+|5pUTR|ENSG00000109536|unk|FALSE|unique (ssRNA)
RNA: GGGAGUUCUACAGUCCGACGAUCAGUGGAACUCUGAGCCAUUCAGCGUUUGGGUGAAGACGGAGGCGGGUUCUACAGAGACGUAGGCUGUCAGGGAGUGUUUAUUUCGCGUCCGCUUCUGUUUCUCCGCGCCCCUGUGCUGCCCAACAGAGGAUUGAGCAUCA
B9: chr5:177457090:177457109:-|3pUTR|ENSG00000113758|msi1_unk|FALSE|overlapping (ssRNA)
RNA: GGGAGUUCUACAGUCCGACGAUCGGUAGUUGAGACGCUGUUGCAAAUUCCACCCCUCCUUCCCUGGUCCAGAUUGUAGCUCUUAGUCCUCCCUGCUCAGCUGGCCGGGUUGGAGGCCUCACCCUGCUUGGGGCCUGGCGUGGGCAACAGAGGAUUGAGCAUCA
B10: chr19:2853326:2853433:+|CDS|ENSG00000186300|unk|FALSE|unique (ssRNA)
RNA: GGGAGUUCUACAGUCCGACGAUCCAAUGUGGGAAAACUUUCAAUUGGCCCAUAUCUUUACGAAAACAUAUGAGAACACAUACUAGAGAGAAACCCUAUGAAUGUAAGCAGUGUGGGAAAGCCUUCAGCUUGUCUGCUUGCUUUCAACAGAGGAUUGAGCAUCA
B11: chr6:152987361:152990084:-|three_prime_utr|ENSG00000112031|control|control|control (ssRNA)
RNA: GGGAGUUCUACAGUCCGACGAUCAGAUUAUCUACUGGAUGAACUUGUACAGUCAUUGAAGGAAUACGCCGAUUAUGAAUCUUUAGUAGAAAUUAUUUCCCAAAAAGUUUAAGUUGAUUUGUUAUUUAUAGACUUUCGUAGCUUCAACAGAGGAUUGAGCAUCA
B12: ENSG00000135956:stop:overlap|stop_codon|ENSG00000135956|stop_codon|NA|stop_codon (ssRNA)
RNA: GGGAGUUCUACAGUCCGACGAUCUGAAAGACAGUGCUGCUCCUGCGGGUCAUCGCCGCCUUCUGUUUCCUGGGCAUCCUGUGUAGUCUCUCCGCUUUCCUUCUGGAUGUCUUUGGGCCGAAGCAUCCUGCUCUGAAGAUCACUCAACAGAGGAUUGAGCAUCA
B13: chr3:128622278:128622381:-|CDS|ENSG00000163902|unk|FALSE|unique (ssRNA)
RNA: GGGAGUUCUACAGUCCGACGAUCAGCCAGGAUGAAGGUAGCCUGCAUCACAGAGCAGGUCUUGACCCUGGUCAACAAGAGAAUAGGCCUUUACCGUCACUUUGACGAGACCGUCAAUAGGUACAAGCAAUCCCGGGACAUCUCCAACAGAGGAUUGAGCAUCA
B14: chr8:80499649:80499757:+|CDS|ENSG00000205189|unk|FALSE|unique (ssRNA)
RNA: GGGAGUUCUACAGUCCGACGAUCUAAGACUUUAUAUUGCUUUUCAAACAAAGAAAGCCCUAACCAAAACAAUACUACCCACUUAGAUAUUGCUGCAGUUCAAGGUUUUUCAGUCAUCUUGGACUUCUUGUAUUCUGGUAACCUCAACAGAGGAUUGAGCAUCA

These binders were tested against MSI1 full-length (mouse, UniProt Q61474 1-362) (assay: nsRBNS (natural sequence RNA bind-n-seq); RBNS binding buffer (assumed for nsRBNS): 25 mM Tris pH 7.5, 150 mM KCl, 3 mM MgCl2, 0.01% Triton X-100, 500 ug/ml BSA, 20 U/ml SUPERase-In, 4 C; UNK is unkempt and MSI1 is Musashi-1; names of the RNAs are library labels; protein concentration not given here; high values mean tight binding).
UniProt Q61474, sequence (Q61474 whole entry): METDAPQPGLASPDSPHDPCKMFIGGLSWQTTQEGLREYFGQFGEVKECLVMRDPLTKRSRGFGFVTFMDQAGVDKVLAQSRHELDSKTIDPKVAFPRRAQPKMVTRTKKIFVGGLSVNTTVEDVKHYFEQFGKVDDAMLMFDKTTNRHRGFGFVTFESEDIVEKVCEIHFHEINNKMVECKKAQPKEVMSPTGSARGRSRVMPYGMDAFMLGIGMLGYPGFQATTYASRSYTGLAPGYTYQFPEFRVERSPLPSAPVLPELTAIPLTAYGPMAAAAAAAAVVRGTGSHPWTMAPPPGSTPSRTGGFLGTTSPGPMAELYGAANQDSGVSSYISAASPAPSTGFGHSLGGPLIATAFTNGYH

| Binder | binding signal |
| --- | --- |
| B1 | 1.46 enrichment R |
| B2 | 0.314 enrichment R |
| B3 | 5.08 enrichment R |
| B4 | 0.889 enrichment R |
| B5 | 1.24 enrichment R |
| B6 | 3.75 enrichment R |
| B7 | 0.329 enrichment R |
| B8 | 0.585 enrichment R |
| B9 | 1 enrichment R |
| B10 | 0.43 enrichment R |
| B11 | 10.5 enrichment R |
| B12 | 0.337 enrichment R |
| B13 | 0.259 enrichment R |
| B14 | 0.722 enrichment R |
